# The other results are listed elsewhere or left out.
# Target: T1, MBP-FoxP1dN (Mus musculus, UniProt P58462 326-579)
# T1 sequence: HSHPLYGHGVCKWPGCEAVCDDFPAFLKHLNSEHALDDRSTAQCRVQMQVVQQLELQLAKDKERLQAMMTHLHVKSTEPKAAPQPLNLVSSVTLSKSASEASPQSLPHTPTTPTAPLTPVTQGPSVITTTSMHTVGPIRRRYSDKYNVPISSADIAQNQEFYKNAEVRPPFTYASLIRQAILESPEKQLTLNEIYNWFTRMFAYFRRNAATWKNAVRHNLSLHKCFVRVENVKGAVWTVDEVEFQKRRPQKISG
# Test: PD-seq (MBP pull-down with sequencing); 20 mM Tris-HCl pH 7.5, 100 mM NaCl, 1.5 mM MgCl2, 0.4 uM protein, 0.1 uM dsDNA library, 30 min, room temperature, amylose pull-down; high values mean tight binding
# Conditions: protein: recombinant; tags: His6-MBP; chain copies: 2; dsDNA, one strand shown
# In short: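 In Tris pH 7.5 buffer with NaCl and MgCl2, 0.4 µM His6-MBP-tagged mouse FoxP3 or FoxP1 fragment lacking the N-terminus, from E. coli, met 0.1 µM Klenow-filled double-stranded degenerate DNA library for 30 min at room temperature. Three washes on amylose resin followed capture of the complexes, then proteinase K release of DNA, PCR barcoding and Illumina sequencing. Binding is taken as pooled-replicate reads-per-million enrichment of pull-down relative to input.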
row,Sequence,binding signal
1,GATGATTGTTCTCCCAGCTGATGAATTCCTCTCCTCGAGTAAACAAATTTTCCTAATCTTTCTGTTCAAGCGCCATCTAC,0.67 RPM ratio (pull-down/input)
2,GATGATTGTTCTCCCAGCTGATGAATTTGTGTAATCGAGTAAACAAATTTTCCTAATCTTTCTGTTCAAGCGCCATCTAC,1.97 RPM ratio (pull-down/input)
3,GATGATTGTTCTCCCAGCTGATGAATTCTTGAGATCGAGTAAACAAATTTTCCTAATCTTTCTGTTCAAGCGCCATCTAC,0.825 RPM ratio (pull-down/input)
4,GATGATTGTTCTCCCAGCTGATGAATTTATCACTTCGAGTAAACAAATTTTCCTAATCTTTCTGTTCAAGCGCCATCTAC,1.13 RPM ratio (pull-down/input)
5,GATGATTGTTCTCCCAGCTGATGAATTAACGACGTCGAGTAAACAAATTTTCCTAATCTTTCTGTTCAAGCGCCATCTAC,0.864 RPM ratio (pull-down/input)
6,GATGATTGTTCTCCCAGCTGATGAATTGCGCTACTCGAGTAAACAAATTTTCCTAATCTTTCTGTTCAAGCGCCATCTAC,1.08 RPM ratio (pull-down/input)
7,GATGATTGTTCTCCCAGCTGATGAATTAAGCTCGTCGAGTAAACAAATTTTCCTAATCTTTCTGTTCAAGCGCCATCTAC,0.813 RPM ratio (pull-down/input)
8,GATGATTGTTCTCCCAGCTGATGAATTCAGACTATCGAGTAAACAAATTTTCCTAATCTTTCTGTTCAAGCGCCATCTAC,0.864 RPM ratio (pull-down/input)
9,GATGATTGTTCTCCCAGCTGATGAATTCTTTTGGTCGAGTAAACAAATTTTCCTAATCTTTCTGTTCAAGCGCCATCTAC,1 RPM ratio (pull-down/input)
10,GATGATTGTTCTCCCAGCTGATGAATTTCTGGCTTCGAGTAAACAAATTTTCCTAATCTTTCTGTTCAAGCGCCATCTAC,0.839 RPM ratio (pull-down/input)
11,GATGATTGTTCTCCCAGCTGATGAATTGCACTAGTCGAGTAAACAAATTTTCCTAATCTTTCTGTTCAAGCGCCATCTAC,1.12 RPM ratio (pull-down/input)
12,GATGATTGTTCTCCCAGCTGATGAATTCCCGGTATCGAGTAAACAAATTTTCCTAATCTTTCTGTTCAAGCGCCATCTAC,0.838 RPM ratio (pull-down/input)
13,GATGATTGTTCTCCCAGCTGATGAATTCTTTTCCTCGAGTAAACAAATTTTCCTAATCTTTCTGTTCAAGCGCCATCTAC,0.876 RPM ratio (pull-down/input)
14,GATGATTGTTCTCCCAGCTGATGAATTTGTAATATCGAGTAAACAAATTTTCCTAATCTTTCTGTTCAAGCGCCATCTAC,1.36 RPM ratio (pull-down/input)
15,GATGATTGTTCTCCCAGCTGATGAATTGCCCCGTTCGAGTAAACAAATTTTCCTAATCTTTCTGTTCAAGCGCCATCTAC,0.921 RPM ratio (pull-down/input)
16,GATGATTGTTCTCCCAGCTGATGAATTAGATTTATCGAGTAAACAAATTTTCCTAATCTTTCTGTTCAAGCGCCATCTAC,1.13 RPM ratio (pull-down/input)
17,GATGATTGTTCTCCCAGCTGATGAATTGTCGATCTCGAGTAAACAAATTTTCCTAATCTTTCTGTTCAAGCGCCATCTAC,0.951 RPM ratio (pull-down/input)
18,GATGATTGTTCTCCCAGCTGATGAATTCCGGACCTCGAGTAAACAAATTTTCCTAATCTTTCTGTTCAAGCGCCATCTAC,0.757 RPM ratio (pull-down/input)
19,GATGATTGTTCTCCCAGCTGATGAATTTCAATGATCGAGTAAACAAATTTTCCTAATCTTTCTGTTCAAGCGCCATCTAC,0.976 RPM ratio (pull-down/input)
20,GATGATTGTTCTCCCAGCTGATGAATTATAACTATCGAGTAAACAAATTTTCCTAATCTTTCTGTTCAAGCGCCATCTAC,1.07 RPM ratio (pull-down/input)

row,Sequence,binding signal
1,GATGATTGTTCTCCCAGCTGATGAATTCGCTACTTCGAGTAAACAAATTTTCCTAATCTTTCTGTTCAAGCGCCATCTAC,0.872 RPM ratio (pull-down/input)
2,GATGATTGTTCTCCCAGCTGATGAATTTGCCACCTCGAGTAAACAAATTTTCCTAATCTTTCTGTTCAAGCGCCATCTAC,0.982 RPM ratio (pull-down/input)
3,GATGATTGTTCTCCCAGCTGATGAATTCGGCTACTCGAGTAAACAAATTTTCCTAATCTTTCTGTTCAAGCGCCATCTAC,0.808 RPM ratio (pull-down/input)
4,GATGATTGTTCTCCCAGCTGATGAATTAATAGAATCGAGTAAACAAATTTTCCTAATCTTTCTGTTCAAGCGCCATCTAC,1.01 RPM ratio (pull-down/input)
5,GATGATTGTTCTCCCAGCTGATGAATTCAGGTTCTCGAGTAAACAAATTTTCCTAATCTTTCTGTTCAAGCGCCATCTAC,0.857 RPM ratio (pull-down/input)
6,GATGATTGTTCTCCCAGCTGATGAATTCAATCTATCGAGTAAACAAATTTTCCTAATCTTTCTGTTCAAGCGCCATCTAC,0.893 RPM ratio (pull-down/input)
7,GATGATTGTTCTCCCAGCTGATGAATTGACCGCCTCGAGTAAACAAATTTTCCTAATCTTTCTGTTCAAGCGCCATCTAC,0.854 RPM ratio (pull-down/input)
8,GATGATTGTTCTCCCAGCTGATGAATTTACGGTCTCGAGTAAACAAATTTTCCTAATCTTTCTGTTCAAGCGCCATCTAC,1.02 RPM ratio (pull-down/input)
9,GATGATTGTTCTCCCAGCTGATGAATTCTTCGCCTCGAGTAAACAAATTTTCCTAATCTTTCTGTTCAAGCGCCATCTAC,0.881 RPM ratio (pull-down/input)
10,GATGATTGTTCTCCCAGCTGATGAATTCCGATCTTCGAGTAAACAAATTTTCCTAATCTTTCTGTTCAAGCGCCATCTAC,0.773 RPM ratio (pull-down/input)
11,GATGATTGTTCTCCCAGCTGATGAATTCGGAACGTCGAGTAAACAAATTTTCCTAATCTTTCTGTTCAAGCGCCATCTAC,0.811 RPM ratio (pull-down/input)
12,GATGATTGTTCTCCCAGCTGATGAATTATGCTGCTCGAGTAAACAAATTTTCCTAATCTTTCTGTTCAAGCGCCATCTAC,1.03 RPM ratio (pull-down/input)
13,GATGATTGTTCTCCCAGCTGATGAATTACGGGGTTCGAGTAAACAAATTTTCCTAATCTTTCTGTTCAAGCGCCATCTAC,0.931 RPM ratio (pull-down/input)
14,GATGATTGTTCTCCCAGCTGATGAATTGTGGAGATCGAGTAAACAAATTTTCCTAATCTTTCTGTTCAAGCGCCATCTAC,0.948 RPM ratio (pull-down/input)
15,GATGATTGTTCTCCCAGCTGATGAATTCGCGCGGTCGAGTAAACAAATTTTCCTAATCTTTCTGTTCAAGCGCCATCTAC,0.853 RPM ratio (pull-down/input)
16,GATGATTGTTCTCCCAGCTGATGAATTCCAAGTCTCGAGTAAACAAATTTTCCTAATCTTTCTGTTCAAGCGCCATCTAC,0.7 RPM ratio (pull-down/input)
17,GATGATTGTTCTCCCAGCTGATGAATTCGCTGGATCGAGTAAACAAATTTTCCTAATCTTTCTGTTCAAGCGCCATCTAC,0.878 RPM ratio (pull-down/input)
18,GATGATTGTTCTCCCAGCTGATGAATTCGGCTGTTCGAGTAAACAAATTTTCCTAATCTTTCTGTTCAAGCGCCATCTAC,0.85 RPM ratio (pull-down/input)
19,GATGATTGTTCTCCCAGCTGATGAATTTCGTTTTTCGAGTAAACAAATTTTCCTAATCTTTCTGTTCAAGCGCCATCTAC,1.02 RPM ratio (pull-down/input)
20,GATGATTGTTCTCCCAGCTGATGAATTGCGGAAGTCGAGTAAACAAATTTTCCTAATCTTTCTGTTCAAGCGCCATCTAC,1.03 RPM ratio (pull-down/input)

# Reference: article PMC12820563, “FoxP3 forms a head-to-head dimer in vivo and stabilizes its multimerization on adjacent microsatellites”
